# This is one part of the list. At the low end of the ranking the order means little.
# Target: SIX1-Q177R homeodomain (UniProt Q15475)
# Experiment: universal protein binding microarray
# Conditions: Universal all-10-mer PBM (8x60K, AMADID 030236), 300 nM GST-tagged protein, Alexa Fluor 488 anti-GST; buffer, salt, pH and temperature not stated; high values mean tight binding; most listed sequences are background and not binding sites; double strand, one strand shown
row,Sequence,binding signal
1,GCGCTCGA,-0.127 E-score
2,GGGAGAAA,-0.165 E-score
3,AGTCAGGA,-0.0668 E-score
4,CATCACCC,0.0258 E-score
5,ATGGAACG,-0.23 E-score
6,AAAATCTA,-0.155 E-score
7,TAGGGCCA,-0.298 E-score
8,GACCAGCA,0.04 E-score
9,GAAGCAAC,-0.0823 E-score
10,AGATATCG,-0.135 E-score
11,ATAAGCCC,-0.148 E-score
12,ATTGCACC,0.296 E-score
13,AGAGAGAA,-0.186 E-score
14,TCATTGAA,0.0886 E-score
15,AAATATAC,-0.0479 E-score
16,ACAACGCT,-0.149 E-score
17,GACCCACA,0.107 E-score
18,GCCATCGC,-0.119 E-score
19,CGACTAGC,-0.063 E-score
20,TAAGAATA,-0.12 E-score
21,AATTTATC,-0.0386 E-score
22,AAAGCGGA,0.00272 E-score

row,Sequence,binding signal
1,AAACGCAC,0.115 E-score
2,ATCCTCGC,0.0903 E-score
3,AACTCGGA,-0.0262 E-score
4,AAGTGACA,0.135 E-score
5,CCGGTCGA,-0.0602 E-score
6,ACATAGTA,0.0569 E-score
7,CCCACCCC,0.304 E-score
8,GCTAAACC,-0.147 E-score
9,CGGGGTAG,0.221 E-score
10,CAATGTGC,-0.239 E-score
11,GGCAACCC,0.0693 E-score
12,AAATCACT,-0.235 E-score
13,GATGTAGA,-0.15 E-score
14,CCTAGCCA,-0.199 E-score
15,ATACTGTG,0.0919 E-score
16,AAAGTGGC,-0.277 E-score
17,GAGGGGGC,-0.115 E-score
18,AGCGCAAA,-0.0983 E-score
19,ACCAACGT,-0.0189 E-score
20,GAGCCTGC,-0.185 E-score
21,ACTCGCAG,0.0165 E-score
22,AAGCGTCA,0.0298 E-score

row,Sequence,binding signal
1,GAGAGCGA,-0.0819 E-score
2,CTGATACA,0.24 E-score
3,CGGCTGGC,-0.21 E-score
4,GCTAGCAC,0.07 E-score
5,AAGCACCA,0.24 E-score
6,CTCTTTAA,-0.134 E-score
7,GGTCCCTA,-0.129 E-score
8,AGAGCTTG,-0.023 E-score
9,CCACCAGC,-0.141 E-score
10,ACTTCATA,-0.0914 E-score
11,AAAGCACC,0.0683 E-score
12,CGCTCCGC,-0.251 E-score
13,CATTCCTA,-0.178 E-score
14,CACATATC,0.0997 E-score
15,CGTAGCGC,-0.211 E-score
16,AATTTTCA,-0.0769 E-score
17,AGCGGTGC,0.0934 E-score
18,CATTTTGC,-0.223 E-score
19,GCTATATA,-0.0186 E-score
20,AGGGGTGC,0.221 E-score
21,CAACTATC,-0.333 E-score
22,ATGCGCGA,-0.213 E-score

row,Sequence,binding signal
1,ATTCTCAC,-0.0562 E-score
2,GAAATTTC,-0.28 E-score
3,ACCCGTCT,0.178 E-score
4,GGCTGGGA,-0.0856 E-score
5,GTCGTCAC,-0.0501 E-score
6,CCAACGAC,-0.0446 E-score
7,CACGGGAG,0.17 E-score
8,CGCCGCCC,0.0362 E-score
9,TAATGGGA,-0.169 E-score
10,CAAACCGA,-0.0212 E-score
11,CAGAGGAC,0.124 E-score
12,GACGAATA,-0.122 E-score
13,ACCCATAT,0.103 E-score
14,CAACTTCA,0.0829 E-score
15,CCGGCAAC,0.0504 E-score
16,AGTAATTC,-0.0639 E-score
17,CTCTGACC,-0.0793 E-score
18,AAGAAGGC,-0.241 E-score
19,TGACACCA,0.491 E-score
20,ACGTGGTC,-0.152 E-score

# From article PMC10668032
